Reference: paper PMC4336329 (PLoS ONE, 2015)
Screen size: about 310,000 compounds; about 14,000 (4.5%) showed an effect of 50% or more. The effect is printed as a negative number. The list shows a part of the results.

target: human ether-à-go-go-related gene (hERG) potassium channel (human, UniProt Q12809); assay: primary screen, population patch clamp on CHO cells stably expressing hERG
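Also: peak tail current of the secondary pulse compared with the same well before compound.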

Sequence of human ether-à-go-go-related gene (hERG) potassium channel (Q12809 whole entry, looked up): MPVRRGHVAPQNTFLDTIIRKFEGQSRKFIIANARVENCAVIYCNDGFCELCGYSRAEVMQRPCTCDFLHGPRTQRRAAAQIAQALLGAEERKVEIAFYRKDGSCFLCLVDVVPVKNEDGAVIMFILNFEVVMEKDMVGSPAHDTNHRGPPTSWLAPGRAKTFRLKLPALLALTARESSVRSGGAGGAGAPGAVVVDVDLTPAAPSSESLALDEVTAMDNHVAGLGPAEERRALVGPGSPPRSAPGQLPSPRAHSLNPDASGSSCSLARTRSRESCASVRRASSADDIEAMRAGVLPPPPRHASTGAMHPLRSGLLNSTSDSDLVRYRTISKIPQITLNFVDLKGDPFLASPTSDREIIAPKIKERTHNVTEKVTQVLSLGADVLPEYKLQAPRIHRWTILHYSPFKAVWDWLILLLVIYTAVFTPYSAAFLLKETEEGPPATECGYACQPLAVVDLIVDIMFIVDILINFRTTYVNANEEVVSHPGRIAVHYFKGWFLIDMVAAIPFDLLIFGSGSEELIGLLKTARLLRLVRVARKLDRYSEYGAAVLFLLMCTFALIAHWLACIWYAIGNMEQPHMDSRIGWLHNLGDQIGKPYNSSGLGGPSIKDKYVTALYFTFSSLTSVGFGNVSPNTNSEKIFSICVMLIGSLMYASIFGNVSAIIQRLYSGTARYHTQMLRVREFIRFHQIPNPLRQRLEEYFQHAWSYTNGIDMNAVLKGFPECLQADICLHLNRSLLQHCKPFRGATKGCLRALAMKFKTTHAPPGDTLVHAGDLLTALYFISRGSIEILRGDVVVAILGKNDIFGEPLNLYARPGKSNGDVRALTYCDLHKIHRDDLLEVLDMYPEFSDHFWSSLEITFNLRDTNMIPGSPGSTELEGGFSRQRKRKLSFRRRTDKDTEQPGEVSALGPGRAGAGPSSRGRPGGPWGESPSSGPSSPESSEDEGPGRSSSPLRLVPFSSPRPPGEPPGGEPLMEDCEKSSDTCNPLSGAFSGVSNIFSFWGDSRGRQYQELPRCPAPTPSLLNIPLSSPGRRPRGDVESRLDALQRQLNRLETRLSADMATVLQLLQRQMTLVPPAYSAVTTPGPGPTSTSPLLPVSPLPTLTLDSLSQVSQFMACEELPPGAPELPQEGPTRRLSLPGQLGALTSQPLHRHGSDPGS

First: Cc1ccccc1CSc1nsc(N)n1
Second: Cl.N[C@@H](Cc1ccccc1)c1nnc(SCc2ccccc2F)o1
The “hERG current change (%, negative = inhibition) at 10uM” value of the first is lower: -10.5% for the first, 10.7% for the second.

Compared with `C=CCn1c(=NC(=O)c2cc(Cl)sc2Cl)sc2cc(S(N)(=O)=O)ccc21`, `Cc1nc2cc(NCc3cc([N+](=O)[O-])ccc3O)ccc2n1Cc1ccccc1` is lower in “hERG current change (%, negative = inhibition) at 10uM” value: 18.6% for the first, -2.18% for the second.

Going from `COc1ccc(C2(C(=O)Nc3cc(C)on3)CCOCC2)cc1` to `COc1ccc(C(=O)CC(=O)C(=O)Nc2ccc(OC)c(Cl)c2)cc1`, the “hERG current change (%, negative = inhibition) at 10uM” value rises from -6.79% to 12.9%.

Compared with `COc1ccc(CCNC(=O)/C(C#N)=C/c2ccc(OCC(=O)NCC3CCCO3)cc2)cc1OC` (stereo not drawn), `C/C=C/c1ccc(OCCCCOc2ccccc2C(C)=O)c(OC)c1` is lower in “hERG current change (%, negative = inhibition) at 10uM” value: 11.7% for the first, -12.1% for the second.

Compared with `C/C(=N/NC(=O)C1COc2ccccc2O1)c1ccc(Br)s1` (stereo not drawn), `O=C(NCC1COc2ccccc2O1)c1ccc(Cl)c(S(=O)(=O)N2CCOCC2)c1` (stereo not drawn) is lower in “hERG current change (%, negative = inhibition) at 10uM” value: 7.54% for the first, -43% for the second.

Going from `CCc1ccc(C(=O)CN2C(=O)NC(C)(CCc3ccccc3)C2=O)cc1` (stereo not drawn) to `CCCCc1ccc(NC(=O)CN2NS(=O)(=O)c3ccccc3C2=O)cc1`, the “hERG current change (%, negative = inhibition) at 10uM” value rises from -7.68% to 8.24%.

Going from `Cc1ccc(NC(=O)N2CCCC2C(=O)Nc2nnc(C(C)C)s2)cc1` (stereo not drawn) to `Cc1ccc(OCCCCNC2CCCC(C)C2C)c(C)c1.O=C(O)C(=O)O` (stereo not drawn), the “hERG current change (%, negative = inhibition) at 10uM” value falls from 9.77% to -56.9%.

Compared with `COc1ccc(S(=O)(=O)N2CCOCC2)cc1NC(=O)CN1CCN(C)CC1`, `O=C(CSc1nc(=O)n(CCCN2CCOCC2)c2c1CCCC2)Nc1ccc(F)cc1F` is lower in “hERG current change (%, negative = inhibition) at 10uM” value: -0.248% for the first, -22.6% for the second.

Going from `COCCn1nnnc1CN1CCC(Cc2ccccc2)CC1.Cl` to `CCOC(=O)C1CCCN(c2nnnn2-c2ccccc2)C1` (stereo not drawn), the “hERG current change (%, negative = inhibition) at 10uM” value falls from -3.18% to -5.57%.

Going from `O=C(CCN1C(=O)/C(=C\c2ccccc2)SC1=S)Nc1ccc(C(=O)O)cc1` to `CN1CCN(C(=O)c2cnn(-c3ccccc3)c2NC(=O)c2ccc([N+](=O)[O-])cc2)CC1`, the “hERG current change (%, negative = inhibition) at 10uM” value falls from 15.6% to -51.6%.

Compared with `COc1ccc(NCC(=O)N/N=C/C(C)c2ccccc2)cc1` (stereo not drawn), `COc1ccc(S(=O)(=O)Nc2ccc(-n3cccc3)cc2)cc1` is higher in “hERG current change (%, negative = inhibition) at 10uM” value: 0.596% for the first, 10% for the second.

Compared with `O=S(=O)(c1ccc(Br)cc1)N1CCN(c2ccccc2)CC1`, `CCS(=O)(=O)NCC(c1cccnc1)N1CCN(c2ccc(F)cc2)CC1` (stereo not drawn) is lower in “hERG current change (%, negative = inhibition) at 10uM” value: 12.2% for the first, -7.91% for the second.

First: CCCc1nc2ccccc2c(=O)n1/N=C/c1ccc(O)c(O)c1
Second: CCCCCn1c(=O)c(C(=O)NCc2ccccc2)c(O)c2ccccc21
The “hERG current change (%, negative = inhibition) at 10uM” value of the first is lower: -0.0772% for the first, 15.2% for the second.

First: CN(C)CCCn1c(=S)[nH]c2ccccc2c1=O
Second: O=c1c2ccccc2nc2n1CCCS2
The “hERG current change (%, negative = inhibition) at 10uM” value of the first is lower: -7.26% for the first, -3.61% for the second.

Compared with `CC1O[C@@H]2O[C@](O[C@H](C)CC[C@@H](C)O)(c3ccccc3)O[C@@H]2C[C@H]1O` (stereo partly drawn), `CCOC(=O)C1(Cc2ccccc2)CCCN(Cc2ccccn2)C1` (stereo not drawn) is lower in “hERG current change (%, negative = inhibition) at 10uM” value: 13.4% for the first, -20.7% for the second.

Going from `Cc1cc(-c2cc(-c3ccc(Cl)cc3)on2)nc(NCC2CC2)n1` to `Cc1ccc(-c2nnc(/C=C/c3ccccc3)o2)cc1`, the “hERG current change (%, negative = inhibition) at 10uM” value rises from -8.14% to -0.573%.

Going from `CCOC(=O)N1CCC(NC(=O)CNS(=O)(=O)c2ccc(Br)s2)CC1` to `COC(=O)c1c(NC(=O)CSc2nccn2C)sc(C)c1C`, the “hERG current change (%, negative = inhibition) at 10uM” value falls from 1.87% to -15.8%.

Compared with `CCOc1ccc2oc(C(=O)OC(C(=O)NC(N)=O)C(C)C)c(C)c2c1` (stereo not drawn), `CCOC(=O)c1nnn(-c2nonc2N)c1CSc1ccc(C)cc1` is lower in “hERG current change (%, negative = inhibition) at 10uM” value: 8.24% for the first, -31.2% for the second.

Compared with `Nc1nnc(SCC(=O)c2ccco2)s1`, `N#Cc1c(Nc2ccccc2)sc(C(=O)C2CC2)c1N` is higher in “hERG current change (%, negative = inhibition) at 10uM” value: -6.2% for the first, 20.7% for the second.

First: CCN1CCN(c2cc(C)c3cc(NC(=O)CCC(=O)N4CCN(c5ccccc5OC)CC4)ccc3n2)CC1
Second: O=C(c1ccccc1F)c1cn(CC(=O)N2CCCCC2)c2ccccc12
The “hERG current change (%, negative = inhibition) at 10uM” value of the first is higher: 7.3% for the first, 0.0544% for the second.

Going from `O=C1C=C(c2ccc(F)nc2)C[C@@H](c2ccc3c(c2)OCO3)C1` to `O=C(NC1CCCc2c1cnn2-c1cc(F)cc(F)c1)c1ccc[n+]([O-])c1` (stereo not drawn), the “hERG current change (%, negative = inhibition) at 10uM” value rises from -7.35% to -1.14%.

Compared with `CC1=NN(C(N)=S)C(=O)C1N=Nc1cccc([N+](=O)[O-])c1` (stereo not drawn), `COc1ccc(C)c(-n2c(N)cc(=O)n(Cc3ccccc3)c2=O)c1` is higher in “hERG current change (%, negative = inhibition) at 10uM” value: -0.877% for the first, 18.1% for the second.

Going from `CSc1ccc(CN(C)CC(=O)NCCc2ccccc2)cc1` to `CC(=O)c1ccc(S(=O)(=O)NCCC(=O)NCCc2c[nH]c3ccccc23)cc1`, the “hERG current change (%, negative = inhibition) at 10uM” value rises from -35.5% to -30.2%.

Compared with `Cc1cc(C)cc(NC(=O)CCn2ccnc2)c1`, `CCOc1ccc(C(=O)Nc2cccc3ncccc23)cc1Cl` is higher in “hERG current change (%, negative = inhibition) at 10uM” value: 3.41% for the first, 14.8% for the second.

Going from `Nc1ncc([N+](=O)[O-])c(N2CCCCCC2)n1` to `Cc1cc(=O)[nH]c(N2CCCNCC2)n1`, the “hERG current change (%, negative = inhibition) at 10uM” value falls from 23.5% to 11.7%.

First: O=C(N1CCCCCC1)N1CCN(C(=O)N2CCCCC2)CC1
Second: c1ccc(NC2=NCCN2CCCC2CCCC2)cc1
The “hERG current change (%, negative = inhibition) at 10uM” value of the first is higher: 16.7% for the first, -53.4% for the second.

Compared with `CCCCSc1nc2c(=O)[nH][nH]c(=O)c2n1Cc1ccccc1`, `COc1ccc(CCn2c(N)c(S(=O)(=O)c3cccs3)c3nc4ccccc4nc32)cc1OC` is lower in “hERG current change (%, negative = inhibition) at 10uM” value: 2.51% for the first, -26.2% for the second.

Compared with `CC(C)(C)c1[nH]nc2c1C(c1ccoc1)C(C#N)=C(N)O2` (stereo not drawn), `COc1ccccc1NS(=O)(=O)c1cccc(C(=O)NCC(c2ccc(F)cc2)N2CCOCC2)c1` (stereo not drawn) is lower in “hERG current change (%, negative = inhibition) at 10uM” value: -10.6% for the first, -34.3% for the second.

`c1ccc(Nc2cccc3c(Nc4ccccc4)cccc23)cc1` was tested, and the “hERG current change (%, negative = inhibition) at 10uM” value was 0.102%.
